From PMC6919601, “Identification of Plasmodium dipeptidyl aminopeptidase allosteric inhibitors by high throughput screening” (PLoS ONE, 2019)
Hit rate of the full screen: of about 110,000 compounds, about 230 (0.21%) showed an effect of 50% or more. The list shows a part of the results.

molecular target: DPAP1 (Plasmodium falciparum, UniProt Q8IIJ9); experiment: primary screen, percent inhibition; read by cleavage of a fluorogenic dipeptide substrate; higher = more effect of the substance; parameters: species or system P. falciparum D10 trophozoite lysates; single well
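Note: 30 min substrate incubation versus DMSO and 10 µM JCP410 controls.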

Chain of DPAP1 (Q8IIJ9 whole entry, looked up): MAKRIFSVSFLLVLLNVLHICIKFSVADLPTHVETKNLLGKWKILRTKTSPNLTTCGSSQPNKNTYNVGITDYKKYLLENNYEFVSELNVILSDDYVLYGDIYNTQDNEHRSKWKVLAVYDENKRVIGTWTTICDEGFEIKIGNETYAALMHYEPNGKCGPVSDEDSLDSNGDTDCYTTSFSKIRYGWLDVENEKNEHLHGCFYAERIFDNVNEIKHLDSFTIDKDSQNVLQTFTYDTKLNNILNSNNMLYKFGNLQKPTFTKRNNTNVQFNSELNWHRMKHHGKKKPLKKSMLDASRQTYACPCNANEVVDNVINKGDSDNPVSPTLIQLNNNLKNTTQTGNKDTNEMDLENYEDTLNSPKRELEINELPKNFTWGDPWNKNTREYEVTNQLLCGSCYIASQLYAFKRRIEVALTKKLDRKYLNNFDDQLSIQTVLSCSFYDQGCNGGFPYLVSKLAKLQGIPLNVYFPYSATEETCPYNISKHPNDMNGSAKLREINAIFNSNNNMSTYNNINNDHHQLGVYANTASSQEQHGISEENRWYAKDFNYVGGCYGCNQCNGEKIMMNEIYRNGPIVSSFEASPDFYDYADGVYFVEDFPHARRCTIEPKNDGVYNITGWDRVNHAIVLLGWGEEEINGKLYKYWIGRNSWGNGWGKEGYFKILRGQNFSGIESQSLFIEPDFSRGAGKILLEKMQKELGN

Row | Compound | % Inhibition @ 10 uM
1 | CCOC(=O)c1nnc(S)nc1O | -5.37%
2 | C=CCNC(=O)c1c(NC(=O)COc2ccccc2)sc2c1CCCC2 | -1.52%
3 | C=CCNC(=O)c1c(NC(=O)c2ccco2)sc2c1CCC(C(C)(C)C)C2 (stereo not drawn) | -2.8%
4 | COc1ccc(-c2nnc3n2N=C(c2ccc(Br)s2)CS3)cc1 | 2.89%
5 | CCOC(=O)c1c(NC(=O)c2ccccc2C(=O)O)sc(C)c1C | 6.89%
6 | Cc1nc2c(Cl)cccc2c2c1CC(C(C)(Cl)Br)O2 (stereo not drawn) | 2.05%
7 | CCCN(CCC)Cc1c(C(=O)O)nnn1-c1nonc1N | 3.25%
8 | CN(C)S(=O)(=O)c1ccc(S(=O)(=O)N2CCC3(CC2)OCCO3)cc1 | 4.18%
9 | CCCCn1c(-c2ccccc2)nc2c(sc3nc(C)cc(COC)c32)c1=O | 1.76%
10 | COc1cc(C2C3=C(O)CCCC3=NC(C)=C2C(=O)N2CCCCC2)ccc1OCc1ccccc1 (stereo not drawn) | -5.05%
11 | CCc1ccc(/C=C(\C#N)c2nc(-c3ccccc3)cs2)cc1 | -3.44%
12 | CC(NC(=O)Cn1cnc2c1c(=O)n(C)c(=O)n2C)c1ccccc1 (stereo not drawn) | 1.27%
13 | c1ccc(-c2c(-c3ccccc3)n(Cc3ccco3)c3ncnc(NCCCn4ccnc4)c23)cc1 | 1.96%
14 | CCOCCCNC(=O)c1ccc(N(C)S(C)(=O)=O)cc1 | 6.7%
15 | COc1ccc(-c2nc3n(n2)C(c2cccnc2)C2=C(O)CCCC2=N3)cc1 (stereo not drawn) | 0.275%
16 | Cc1ccc(OCCSc2nc3ccccc3n2CC(=O)O)cc1 | 5.6%
17 | Cc1ccccc1C(=O)Nc1sc2c(c1C(=O)N(C)C)CCCCC2 | 4.83%
18 | O=C(NCc1cccnc1)c1ccc(CS(=O)c2cccc(Cl)c2)o1 (stereo not drawn) | 1.5%
19 | CCN(CC)CCOc1cc(C)ccc1C | -4.01%
20 | CCCS(=O)(=O)N1CCCC(C(=O)NC2CCC(C)CC2)C1 (stereo not drawn) | -0.0542%
21 | COc1cc2c(cc1OC)C(C(=O)N1CCCCCC1)C1c3ccccc3CCN1C2=O (stereo not drawn) | 3.53%
22 | CCO/C(O)=C/C1=NCCNC1=O | -1.18%
23 | Cc1sc2nc(SC/C=C/c3ccccc3)nc(N)c2c1C | -9.24%
24 | O=C(NC1CCCCC1)C1CCN(S(=O)(=O)c2ccc3[nH]c4c(c3c2)CCCCC4)CC1 | -1.34%
25 | COC(=O)C1=C(O)/C(=C\c2cc(C)n(-c3ccc(OC)c(Cl)c3)c2C)N=C1C | 6.58%
26 | COc1ccc(/C=c2/sc3nc4cc(Br)cnc4n3c2=O)c(OC)c1 | 10.9%

Row | Compound | % Inhibition @ 10 uM
27 | O=C(NCc1ccc(Cl)cc1)c1cc(-c2ccccc2O)on1 | 3.55%
28 | O=C(Nc1cccc(Cl)c1)c1ccc([N+](=O)[O-])o1 | -4.11%
29 | C=C1N(C2CCCCC2)C(=O)OC12CCCCC2 | 2.45%
30 | COc1cccc2cc(CC(=O)O)oc12 | 3.04%
31 | CCCCn1c2ccccc2n2cc(-c3ccc4c(c3)OCO4)nc12 | 3.74%
32 | CCOc1cc(C#N)c(NC(=O)c2cccc(OC)c2)cc1OCC | -3.09%
33 | COc1cccc(CNC(=O)C(C)Nc2nn3c(=O)cc(C)nc3s2)c1 (stereo not drawn) | 0.0882%
34 | O=C(NCCc1cccs1)c1sc2ccccc2c1Cl | 3.68%
35 | COc1ccc(C(=O)Nc2ccc(Cl)cc2C(=O)N2CCCCC2CCO)cc1 (stereo not drawn) | 0.205%
36 | COc1ccc(C(=O)CSc2n[nH]c(C)n2)cc1C | -2.87%
37 | CS(=O)(=O)N1CCn2c(nc3ccccc32)C1 | 1.9%
38 | CCc1ccc(OCCNC(=O)OCc2ccccc2)cc1 | -3.43%
39 | COc1ccc(C2C(C#N)=C(N)OC3=C2C(=O)CCC3)cc1COc1ccc(Cl)cc1 (stereo not drawn) | 4.75%
40 | CCOC(=O)N1CCN(S(=O)(=O)N2CCCC(C(=O)NCCc3ccc(C)cc3)C2)CC1 (stereo not drawn) | -3.12%
41 | COc1ccc(S(=O)(=O)NCCc2c(C)[nH]c3c(Cl)cccc23)cc1C | -2.66%
42 | CCN1CCC(N2CCN(C)CC2)CC1 | 3.44%
43 | CCCNC(=O)CCCOc1ccc(Cl)cc1Cl | 0.247%
44 | COc1ccc(CCNCc2ccccc2C(F)(F)F)cc1OC | 4.55%
45 | O=C(Cn1ncc2c1-c1ccccc1OC2)N1CCN(c2ccccn2)CC1 | -1.66%
46 | O=P1(c2ccccc2O)COc2ccccc2OC1 | -2.91%
47 | O=S(=O)(NC1CCCCC1N1CCC(O)CC1)c1ccccc1 (stereo not drawn) | 1%
48 | O=C(Nc1ccc(Br)cc1)c1nc2nc(-c3ccccc3)cc(C(F)(F)F)n2n1 | 1.87%
49 | O=C(Cn1ncc2c3ccccc3nc-2c1O)Nc1nccs1 | -3.99%
50 | CC(C)c1nnc(NC(=O)CC(NC(=O)c2ccccc2)c2ccccc2)s1 (stereo not drawn) | -2.87%
51 | O=C(c1ccccc1Cl)N1CCn2c1nc1ccccc12 | 3.63%
52 | CC(C(=O)c1ccccc1)N1C(=O)c2ccccc2C1=O (stereo not drawn) | 6.63%

Row | Compound | % Inhibition @ 10 uM
53 | Cc1sc2ncnc(NC3CCCCC3)c2c1C | 1.76%
54 | CC(C)C(=O)Nc1ccc(Oc2ccc(NC(=O)C(C)C)cc2)cc1 | 0.795%
55 | CC(C)(C)c1ccc(S(=O)(=O)N2CCC(n3c(O)nc4ccccc43)CC2)cc1 | 2.62%
56 | Cc1nn(-c2ccccc2)c(O)c1/C=N/c1nc2ccc(Cl)cc2s1 | -0.413%
57 | COc1ccc(-n2nc3c(c2NC(=O)c2cccc(OC)c2OC)CS(=O)(=O)C3)cc1 | 9.87%
58 | COc1cc(-c2cc(/N=C(/NCc3ccco3)SC)[nH]n2)cc(OC)c1OC | -2.28%
59 | O=C1CC(c2ccccc2)NC(SCC(=O)NCc2ccccc2)=N1 (stereo not drawn) | -8.7%
60 | CCOC(=O)C1=C(CC)OC(N)=C(C#N)C1c1ccc(NC(C)=O)cc1 (stereo not drawn) | 3.54%
61 | O=C(/C=C(\O)C(F)(F)C(=O)/C=C(\O)c1ccccc1)c1ccccc1 | -2.47%
62 | Cc1nc(SC2CC(=O)N(c3ccccc3)C2=O)nc2c1CCCC2 (stereo not drawn) | 8.49%
63 | Fc1ccc(N2CCN(C3CCN(Cc4ccccc4)CC3)CC2)cc1 | 3.28%
64 | N#CC1=C(N)SC(N)=C(C#N)C1c1ccccc1 | 70.9%
65 | Cc1ccc(O)c(C(=O)/C=C/N2CCCCC2)c1 | 12.8%
66 | Cc1cc(C)cc(Oc2ncnc3sc4c(c23)CCCC4)c1 | -1.05%
67 | COc1cccc(CNC(=O)Cn2ncc3c4ccccc4n(Cc4ccccc4F)c3c2=O)c1 | -1.58%
68 | CC(=O)Nc1sc2c(c1C(=O)Nc1cccc3ccccc13)CCCC2 | 2.43%
69 | COCCNC(=O)Cn1ncn2c(cc3ccccc32)c1=O | -1.92%
70 | COc1ccccc1OCC(=O)Nc1ccccc1C(=O)Nc1ccccc1 | 2.42%
71 | Cc1ccc(S(=O)(=O)Nc2cccc3cccnc23)cc1 | -5.5%
72 | CCCOc1ccc2nc(C)c(CCC)c(Cl)c2c1 | -1.99%
73 | O=[N+]([O-])c1ccc(CN2CCC(O)CC2)o1 | -0.969%
74 | CC(C)CC(C(=O)NCC#N)c1cccc(-c2ccc(C3(O)CCN(C=O)CC3)cc2)c1 (stereo not drawn) | 3.19%
75 | Clc1ccc(-c2cnnn2-c2nonc2-n2cccc2)cc1 | 7.99%
76 | Cc1cc(S(=O)(=O)NC2CC(C)(C)NC(C)(C)C2)c(Cl)cc1Cl | 0.245%
77 | CCOc1ccc(N(C(C)C(=O)Nc2cccc(Br)c2)S(C)(=O)=O)cc1 (stereo not drawn) | 2.54%
78 | Cc1ccc(CNC(=O)c2ccc3c(c2)c(C)c(C)n3Cc2ccc(F)cc2)o1 | -4.52%

Row | Compound | % Inhibition @ 10 uM
79 | CC(=O)c1cnc(S)nc1O | -7.62%
80 | COCCN1C(=O)/C(=C/c2ccccc2C)S/C1=N\c1ccccc1 | -7.21%
81 | CCOc1cc(C(=O)Nc2c(-c3ccccc3)nc3ccccn23)cc(OCC)c1OCC | -5.77%
82 | CCC/N=C/c1c(CCC)nn(-c2ccc(F)cc2)c1O | -5.63%
83 | O=C(N/C(=C\c1ccccc1)C(=O)N1CCCCCCC1)c1ccccc1 | 2.46%
84 | COc1ccc(NS(=O)(=O)c2cc(C(=O)Nc3ccccc3)ccc2C)cc1 | -1.04%
85 | Nc1c(C(=O)C2CC2)sc2nc3c(cc12)CCC3 | 3.72%
86 | Cc1ccc(-n2nc3c(=O)n(CCCC(=O)NC4CCCC4)nc(C)c3c2C)cc1 | 1.11%
87 | Fc1ccc(C2CC(c3cccc4ccccc34)n3ncnc3N2)cc1 (stereo not drawn) | -9.75%
88 | Cc1c2cnn(CC(=O)NCCCN3CCOCC3)c(=O)c2c(C)n1Cc1ccccc1 | 4.4%
89 | Cc1ccc(C(C)C)c(OCC(=O)Nc2nc(C)cc(C)n2)c1 | 1.15%
90 | CCNC(=S)N(CCc1c(C)[nH]c2ccccc12)Cc1cccnc1 | 11.3%
91 | C=C(C)Cn1c(CCCNC(=O)c2ccc(F)cc2)nc2ccccc21 | 2.83%
92 | COc1ccc(CC(=O)Nc2ccccc2C)cc1OC | 0.583%
93 | COc1ccc(-c2cc(-c3ccccc3)nc(SCC(=O)N3CCOCC3)c2C#N)cc1 | 5.24%
94 | CC(C)(C)c1cc(/C=N/N=C(\N)c2nonc2N)cc(C(C)(C)C)c1O | 0.561%
95 | OC1=C2C(=Nc3ccccc3NC2c2ccc(O)cc2)CC(c2ccccc2)C1 (stereo not drawn) | 3.65%
96 | O=C(O)c1cc(O)nc2ccc(S(=O)(=O)O)cc12 | -1.99%
97 | Cc1ccc(C)c(Oc2coc3cc(OCC(=O)NC4CCCCC4)ccc3c2=O)c1 | 4.85%
98 | Cc1cc(C)cc(NC(=O)c2ccc(Br)o2)c1 | -5.92%
99 | COCCCNC(=O)c1cc2c(=O)n3cccc(C)c3nc2n1C | 1.52%
100 | Cc1ccc(NC2=C(Cl)C(=O)N(c3ccccc3)C2=O)cc1C | 1.57%
101 | O=C(CN1N=C(c2ccccc2)CCC1=O)NCCN1CCC(Cc2ccccc2)CC1 | -2.99%
102 | COc1ccccc1CNC(=O)Cn1nc(C)n2c(cc3c(OC)cccc32)c1=O | -3.47%
